These results are taken from patent US10172829B2 (priority 2014, dated 2019).

The test concerns C. difficile strain 630. As to conditions: mouse, in vivo.

`O=c1c2ccccc2[se]n1-c1ccccc1` [Ebselen, 2-phenyl-1,2-benzoselenazol-3-one]: the “C. difficile colony forming unit (CFU) counts from fecal samples, ebselen- vs vehicle-treated” value is listed as “did not observe a significant difference”.
